# From US8618306B2, “Method for preparing deuterated diphenylurea” (Suzhou Zelgen Biopharmaceutical Co., Ltd., priority 2010, dated 2013)
# Legend:
# c-Kit = c-Kit (Homo sapiens, UniProt P10721); assay: Tyrosine kinase inhibition at the molecular level by ELISA; format: biochemical; conditions: for results (efficacy evaluation): 10 μM, one verdict for c-Kit and PDGFR-β
# Method: (§1) The activity of diphenylurea compounds for inhibiting c-Kit, PDGFR-β protein tyrosine kinase on molecular level was tested by Enzyme-Linked Immunosorbent Assay (ELISA).
# (§2) Reaction substrate Poly(Glu,Tyr)4:1 was bought from Sigma. Monoclonal antibody against tyrosine phosphate PY99 was bought from Santa Cruz. Horseradish peroxidase labeled sheep-against-rat IgG was bought from Calbiochem; ATP, DTT, OPD were bought from Amresco; microplates were bought from Corning; Su11248 was bought from Merk.
# (§3) See Roskoski, R., Jr. Sunitinib: a VEGF and PDGF receptor protein kinase and angiogenesis inhibitor. Biochem Biophys Res Commun, 356: 323-328, 2007. The details comprise:
# (§4) Kinase reaction substrate Poly(Glu,Tyr)4:1 was diluted to 20 μg/ml by potassium-free PBS, and the microplates were coated. Diphenylurea samples to be tested were added in the wells of the coated microplates (the samples to be tested were made from the stock solution 10^−2 M in DMSO, and diluted to the desired concentration with reaction buffer before use. the resulted solution was added into the wells to get the final concentration of 10^−5 mol/L in 100 μL reaction system). At the same time, the positive control compound Su11248 was added into the positive control wells.
# (§5) ATP solution diluted with reaction buffer (the final concentration of ATP is 5 μM) followed by addition of tyrosine kinase diluted with reaction buffer. The total volume of reaction system was 100 μL. At the same time, the negative control wells and the control wells without enzyme were set up.
# (§6) The reaction system was placed in a wet box, and shaked for 1 h at 37° C. shielding from light. After the reaction was completed, the plates were washed with T-PBS for three times. Antibody PY99 was added (100 μL/well), and the plates were shaked for 30 min at 37° C. After the reaction was completed, the plates were washed with T-PBS for three times. Horseradish peroxidase labeled sheep-against-rat IgG was added (100 μL/well), and the plates were shaked for 30 min at 37° C. After the reaction was complete, the plates were washed with T-PBS for three times. OPD developing liquid was added (100 μL/well), and reacted for 1-10 min at room temperature shielding from light. 50 μL of 2 M H2SO4 was added to quench the reaction. A492 value was determined using wavelength-adjustable microplate reader VERSAmax.
# (§7) The inhibition ratio of samples can be calculated by the following formula: […]
# PDGFR-β = PDGFR-β (Homo sapiens, UniProt P09619); assay: as above; format: biochemical; conditions: 10 μM compound, ATP 5 μM, mean of duplicate
# Method: as §1, §2, §3, §4, §5, §6, §7
SMILES,results (efficacy evaluation) (c-Kit),"% Inhibition ratio for tyrosine kinase at 10 μM, c-Kit mean value (c-Kit; 10 μM compound, ATP 5 μM, mean of duplicate) [%]","% Inhibition ratio for tyrosine kinase at 10 μM, PDGFR-β mean value (PDGFR-β) [%]"
"CNC(=O)c1cc(Oc2ccc(NC(=O)Nc3ccc(Cl)c(C(F)(F)F)c3)c(F)c2)ccn1 [CM4308, 4-(4-(3-(4-chloro-3-(trifluoromethyl)phenyl]ureido)-3-fluorophenoxy)-N-methylpicolinamide]",effective (The compound has efficacy if the inhibition rate of the tested compound at the experimental concentration 10^−5 mol/L was greater than 50%),–,–
"[2H]C([2H])([2H])NC(=O)c1cc(Oc2ccc(NC(=O)Nc3ccc(Cl)c(C(F)(F)F)c3)c(F)c2)ccn1 [CM4309, 4-(4-(3-(4-chloro-3-(trifluoromethyl)phenyl]ureido)-3-fluorophenoxy)-N-(methyl-d3)picolinamide]",effective (The compound has efficacy if the inhibition rate of the tested compound at the experimental concentration 10^−5 mol/L was greater than 50%),–,–
CCN(CC)CCNC(=O)c1c(C)[nH]c(/C=C2\C(=O)Nc3ccc(F)cc32)c1C [Su11248],effective (The compound has efficacy if the inhibition rate of the tested compound at the experimental concentration 10^−5 mol/L was greater than 50%),90.2,93.9
